# Test results published in article PMC12136788.
# This is one part of the list.
# T1: UNK ZnF1-3 (human, UniProt Q9C0B0 31-174)
# T1 sequence: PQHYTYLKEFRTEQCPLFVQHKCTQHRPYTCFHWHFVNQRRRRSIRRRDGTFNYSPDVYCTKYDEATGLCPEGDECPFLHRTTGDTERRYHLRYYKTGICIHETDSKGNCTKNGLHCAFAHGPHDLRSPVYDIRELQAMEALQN
# B1: chr3:176740097:176740098:-_ENSG00000177565_ENST00000430069|hu_mus|hu_hu_hu_mus_True|18_78 (ssRNA)
# RNA: GGGAGUUCUACAGUCCGACGAUCUGUUUUGUAUACCACAAAAGGAGGCACUUUCAGUAUCUGUAAAAGGUGUUUAGUCCUAAAACAUACUCACCUAGAGGAUAACUCAGGAAAACAUCAAUACAAUCUCUAAGACCUACUCCACAACAGAGGAUUGAGCAUCA
# B2: chr19:15979567:15979568:-_ENSMUSG00000024640_ENSMUST00000025542|mus_mus|FALSE|FALSE (ssRNA)
# RNA: GGGAGUUCUACAGUCCGACGAUCACAGGCUAAUUUUAAACCCUAGGCUCCCCAUCAGAAUGUUUAAAAGCAGCACCUGACUAAAAAAGCAAGCAGAAUAAUUCACAGGCAAUGAAUGGCUUAGAUGACUUAGGACUUUAAUGUCAACAGAGGAUUGAGCAUCA
# B3: chr8:74527950:74527951:-_ENSG00000040341_ENST00000355780|hu_hu|FALSE|FALSE (ssRNA)
# RNA: GGGAGUUCUACAGUCCGACGAUCUUCUUUAAUAACCUCAAAACUGACAGGCAUAUUUCGCUUCAGAGCAAUUUCAAACACUAAGCUGAUCUCAGACUUAUUUGCAUCUUUGUCAUCAUCCACAUCCUUUCCUGAUUCACCAUUCAACAGAGGAUUGAGCAUCA
# B4: chr5:138643207:138643208:+_ENSG00000015479_ENST00000510056|hu_mus|FALSE|FALSE (ssRNA)
# RNA: GGGAGUUCUACAGUCCGACGAUCCAUCCUUCCAAGAGAUGCUGGCAUACUUAAAGACUGGGUAGCAGCAGCAAGAAGGCCUAUUCCUGCUGCAGACAGGUCACGCCCAUGACCCUGUGAAUCCCUACCGAGAGAUGACUGCUGCAACAGAGGAUUGAGCAUCA
# B5: 134880011_134880840_2373_CDS_ENSMUSG00000028809_ENSMUST00000105861|mouse|control|control (ssRNA)
# RNA: GGGAGUUCUACAGUCCGACGAUCUGGUGAGGCAGCCUUUUUUAUCUUUUUGGGCUCCGGGGUCCUGGAGACUCUCCUAAUAGGCCUAGUACUUGGAGAUGGGGACUGCCUUCCUUGGGGUGACGCUGAAGCUCCUCUUCGUACCAACAGAGGAUUGAGCAUCA
# B6: chr4:184596322:184596323:+_ENSG00000168538_ENST00000334690|hu_mus|motif|central (ssRNA)
# RNA: GGGAGUUCUACAGUCCGACGAUCGGCGUUUUGUGUAUCUUGUUUCAACUCACUGAAGAAAGCUAUUUUAAACUGAUGUCGGACAAACAAAAGCUGGUGUGUUGUUUUAUUCAAAAAUUCCUUAUGAGAUUUCACUCUUCUGAUCAACAGAGGAUUGAGCAUCA
# B7: 38126866_38126986_902_3pUTR_ENSG00000120784_ENST00000514101|human|control|control (ssRNA)
# RNA: GGGAGUUCUACAGUCCGACGAUCCCACAUUCUUUACAUUCAUAGGGUUUCUCACCAGUAUGAAUUCUUUGAUGGAAAGUAAGUUGUUGUCGUACUCUAAAAGCCUUCCCACAUUCCCCACAUUCGUAGGGUUUCUCUCUGUUACAACAGAGGAUUGAGCAUCA
# B8: chr18:77179482:77179483:+_ENSMUSG00000090000_ENSMUST00000026487|mus_hu|FALSE|FALSE (ssRNA)
# RNA: GGGAGUUCUACAGUCCGACGAUCGUCCUGGAGAGUUACUGCCUUUCAUGAUCUGAUCUUUUGUAAUGAAACUACAAGUGCAACAUUAAAAAAAAAAACAGAUAAAUAGAAACCCUGGUUUUAUUUUCAGCUUUACAUUUUUGACAACAGAGGAUUGAGCAUCA
# B9: 32197609_32197729_349_CDS_ENSG00000165322_ENST00000344936|human|control|control (ssRNA)
# RNA: GGGAGUUCUACAGUCCGACGAUCGUUUUCAUCUGGCUUGACUUGCCACCAGUCAUCAUUGGUCUUUUUCACCAAGAUGUACCUCUCCCCUUGUUUUAUCACAAUCUUUCUGUCCUUUGCUUCAUAUUCAUAAUCAUAUUCCACCAACAGAGGAUUGAGCAUCA
# B10: chr5:128448638:128448639:+_ENSG00000066583_ENST00000173527|hu_mus|hu_hu_hu_mus_False|28_78 (ssRNA)
# RNA: GGGAGUUCUACAGUCCGACGAUCGGCACUCGCCUUAAUUAGGUUCUGAAUUUCCUUGAAUUUUGGAUGGUCUUUGUCAGCCACCAGCUGUAGGAGGACAGCCUCACUCGUGGUCACGAUGAUCCCAGUGCGGGCAAGACGCUCCAACAGAGGAUUGAGCAUCA
# B11: chr1:46159212:46159213:+_ENSG00000159596_ENST00000372025|hu_hu|FALSE|FALSE (ssRNA)
# RNA: GGGAGUUCUACAGUCCGACGAUCUCUGAUCCCACCCAAGAAAGAUAGGAAACUGGCUCCAUAAGCCAUCUGAGUAAAAGCUAAUAUGGGAAUAUAAGUUUUUGUCAUCAGCAUGACCAGUGGUGGAGCAACGAAGGGGAUUAGCAACAGAGGAUUGAGCAUCA
# B12: 105544292_105553185_213_3pUTR_ENSMUSG00000068798_ENSMUST00000090678|mouse|control|control (ssRNA)
# RNA: GGGAGUUCUACAGUCCGACGAUCUGCACUGUUGGCAAUCUACCUCGACUUGCUUUCUGUAGGAAUCUUCUAUCGUUGGGUCAUAUUUUUCAACAAAAAUCCCCUGAACAAACUGAACUGUCAGAGCAGACUUCCCCACGCCUCCAACAGAGGAUUGAGCAUCA
# B13: 135086339_135086459_490_3pUTR_ENSMUSG00000028165_ENSMUST00000029815|mouse|control|control (ssRNA)
# RNA: GGGAGUUCUACAGUCCGACGAUCCGUCCGCUGCCCGGCUGCUGCGCUUGCGUGAGAGCGGAAGCGGCCGGCGGGCUCGCGGGCUCGGGCGGGAGGUGGCCCGCCGGGCCGCGAUUGGCGCGCGGCGAGUGACGUGCGCGCUGCCAACAGAGGAUUGAGCAUCA
# B14: chr10:112362630:112362631:-_ENSMUSG00000074748_ENSMUST00000099276|mus_mus|FALSE|FALSE (ssRNA)
# RNA: GGGAGUUCUACAGUCCGACGAUCGGAUUACUUAUUAAAAAAUAAGAAUCUCCAAAACAAAGGACAGUGGUGAAUUUCAAACUACCCUCCCCCAAUGAUCCCAGCAUGCGAUAAUGCCAGGUAGUGGCCCCUGGGCAUGCGAUGCAACAGAGGAUUGAGCAUCA
# Target: T1, UNK ZnF1-3
# Assay: nsRBNS (natural sequence RNA bind-n-seq); RBNS binding buffer (assumed for nsRBNS): 25 mM Tris pH 7.5, 150 mM KCl, 3 mM MgCl2, 0.01% Triton X-100, 500 ug/ml BSA, 20 U/ml SUPERase-In, 4 C; UNK is unkempt and MSI1 is Musashi-1; names of the RNAs are library labels; protein concentration not given here; high values mean tight binding
row,Binder,binding signal [enrichment R]
1,B1,0.898
2,B2,2.3
3,B3,1.21
4,B4,0.852
5,B5,0.714
6,B6,1.15
7,B7,0.651
8,B8,0.969
9,B9,0.413
10,B10,0.92
11,B11,1.49
12,B12,0.966
13,B13,0.351
14,B14,0.709
